Whole data set: some 33,000 sequences, median “E-score (-0.5 to 0.5)” near -0.013, cut for the highest 2% near 0.3. This is one part of the list.
Target: T1, Msn1 (UniProt P22148)
T1 sequence: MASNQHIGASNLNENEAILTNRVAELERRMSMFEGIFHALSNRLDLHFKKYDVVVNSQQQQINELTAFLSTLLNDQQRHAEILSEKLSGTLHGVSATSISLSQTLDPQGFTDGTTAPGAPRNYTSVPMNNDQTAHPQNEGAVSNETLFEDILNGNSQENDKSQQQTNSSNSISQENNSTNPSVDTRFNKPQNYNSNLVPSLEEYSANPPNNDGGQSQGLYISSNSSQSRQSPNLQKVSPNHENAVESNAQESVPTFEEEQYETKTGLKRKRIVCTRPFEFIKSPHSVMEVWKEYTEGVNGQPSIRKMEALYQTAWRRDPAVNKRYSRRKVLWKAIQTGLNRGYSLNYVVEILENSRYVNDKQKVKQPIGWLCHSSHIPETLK
Experiment: PBM E-score (8-mer binding enrichment) (E-score (-0.5 to 0.5)); higher = stronger / more preferred TF binding; most listed sequences are background and not binding sites
Settings: protein concentration: 200 nM; construct: GST-full length
Method in brief: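 GST-tagged yeast TFs (full-length or DNA-binding domain) were made by PURExpress in vitro transcription/translation and applied at about 100-200 nM to universal all-10-mer Agilent arrays. The arrays were made double-stranded by primer extension, on fresh or once-stripped slides. Bound protein was detected with fluorescent anti-GST, and scans were normalised with masliner. Each ungapped eight-base word, pooled with its reverse complement, received an E-score (modified Wilcoxon-Mann-Whitney statistic) from the Universal PBM Analysis Suite.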

| Sequence | PBM E-score |
| --- | --- |
| ATACTCCC | -0.0635 |
| CGCGAATC | 0.06 |
| ACCAAGAA | 0.16 |
| TAGCAGAA | 0.0663 |
| ATTTAGCA | -0.102 |
| AGGATGAG | -0.236 |
| TTCGAAAA | 0.264 |
| AGGGAGAC | -0.0522 |
| CCTCTGGC | -0.147 |
| ACGTGGAA | 0.113 |
| AGCTTGTG | -0.0474 |
| GTTGCCCA | 0.0903 |
| GTGCTACA | -0.173 |
| GGATCCCC | -0.27 |
| CATCTGCA | -0.0969 |
| CTTGGCCC | -0.373 |
| AGAATCAA | 0.109 |
| AACGGAAG | 0.0374 |
| CCGTTCAA | 0.0479 |
| GTAATCCA | -0.0299 |
| CACGCTAG | -0.0343 |
| ACTCCATG | -0.154 |
| CCGAAACC | -0.0668 |
| AACTCATC | 0.0101 |
| GGGCTAAC | -0.272 |

| Sequence | PBM E-score |
| --- | --- |
| CGGCGTGC | -0.17 |
| GCAGAGCC | -0.149 |
| CTATTGCC | -0.248 |
| AACACTGA | -0.0626 |
| AAATAAGT | 0.237 |
| ATAGCAGC | 0.0248 |
| ACCCTAGC | -0.155 |
| ATACATAC | -0.0367 |
| ACCACTCG | -0.0126 |
| CCCTCCTC | -0.419 |
| GTAGTGGA | 0.224 |
| AGTCTTTG | 0.033 |
| CTTTGACC | 0.0298 |
| TCTTTCAA | 0.0815 |
| GGCCTTGA | -0.1 |
| GCATCGGA | 0.092 |
| CGGATTCA | -0.0351 |
| ACGTACCA | -0.0307 |
| AATCTCTC | -0.252 |
| TAACAGCA | 0.0293 |
| ACGGTTAG | -0.16 |
| GCTGAGGA | -0.0168 |
| AATCCGAG | -0.0555 |
| AGGAATGC | -0.195 |
| AACAGCAC | 0.106 |

| Sequence | PBM E-score |
| --- | --- |
| CTAAGCAA | -0.0827 |
| GTTTAGTA | 0.261 |
| AAGCTCTG | -0.123 |
| ACGAATTG | 0.138 |
| GTTTTGCA | 0.0182 |
| AGTTTCTG | -0.0795 |
| GAGCTTCA | 0.0163 |
| AGCTCTCA | -0.125 |
| CGAACGAA | 0.0449 |
| CCCAGTGC | -0.208 |
| CAAGTTTA | 0.0923 |
| GCGGTTAC | -0.0579 |
| GATCGAAC | -0.158 |
| TAGGTCAA | 0.115 |
| CGTAATAG | 0.0163 |
| ATAGTCTA | -0.0808 |
| TCCGTCCA | 0.221 |
| CCTAATTA | -0.0274 |
| CCCCCATC | -0.282 |
| AATCCGGC | -0.115 |
| GTCCTTAA | 0.433 |
| CTGCATCC | -0.0326 |
| ACAAACAA | 0.277 |
| ATATATTC | 0.163 |
| CCACCTGC | -0.169 |

| Sequence | PBM E-score |
| --- | --- |
| CAGTCATC | -0.227 |
| CGTACCGA | 0.0482 |
| CCTTTCTC | -0.257 |
| GCGGGTAA | -0.164 |
| AGCATTAT | 0.00573 |
| CATAGAGG | -0.0712 |
| GGCCGTAC | -0.0476 |
| GGGTATTA | -0.0401 |
| ACGAGGTC | 0.0215 |
| ACCCGAAA | -0.0297 |
| AATTAGGC | 0.154 |
| CGTGAACA | 0.0777 |
| ATATGTGC | -0.00808 |
| CTCATTTC | 0.0388 |
| ACTGGTAC | 0.034 |
| ATTTGCCC | 0.0584 |
| CGTCATGA | 0.0599 |
| ATACCGAG | -0.116 |
| TGGGCCCA | -0.128 |
| TAACCAAA | 0.0404 |
| AAAAGGCT | -0.0222 |
| CCGACATA | 0.215 |
| ACTAGGTA | -0.0065 |
| TGACTAAA | 0.0539 |
| CTTGATGA | 0.101 |

| Sequence | PBM E-score |
| --- | --- |
| CTAAATAC | 0.0783 |
| CGTCGAAG | -0.0449 |
| ACCTGTCG | 0.00191 |
| AGTGGTAA | 0.0594 |
| CGTCCATC | 0.0943 |
| CGAAGATC | -0.0505 |
| ACCGTCGA | -0.00377 |
| ATTGAGAA | 0.163 |
| GGCGTAAA | -0.0353 |
| AATCCGTC | 0.148 |
| ACCCAAGC | -0.184 |
| GAACGGGA | -0.0202 |
| CGAAGAAG | 0.0424 |
| AGAAATCC | -0.0711 |
| AGGGATTA | -0.0581 |
| CCTGAGCA | 0.0235 |
| ACTACCAC | -0.137 |
| AAACTCTT | -0.108 |
| CTAGTGCC | -0.224 |
| GACAAGGA | 0.311 |
| GTGGCGGA | -0.0759 |
| CCTTGGAA | -0.156 |
| AGGATACA | 0.0732 |
| ACAAGGCA | 0.0594 |
| CAGCCACG | -0.0651 |

| Sequence | PBM E-score |
| --- | --- |
| AGTCTCAA | -0.0719 |
| GAGTGGCA | -0.0971 |
| ACTACCTG | -0.0515 |
| GTACACAC | 0.256 |
| GAGCTCCA | -0.108 |
| ACAAGTGT | 0.181 |
| ATAATTAA | 0.234 |
| AGCATCAC | -0.178 |
| ACATGGAG | 0.0174 |
| GATCGGTA | 0.0186 |
| AAGACATT | 0.414 |
| GCACCGCC | -0.293 |
| AGCAGGGC | -0.157 |
| ACGATCTG | -0.105 |
| CGCCCTGA | -0.118 |
| CTGGTATC | -0.0417 |
| GCATGAAA | 0.0659 |
| CGCCGATC | 0.0102 |
| TGGGACAA | 0.471 |
| GCCAAAAA | 0.0349 |
| ATAAACAC | 0.0945 |
| ACGAACAG | 0.0486 |
| AAGAACCG | 0.101 |
| CATCTCTA | 0.0343 |
| ACATTCCT | 0.054 |

| Sequence | PBM E-score |
| --- | --- |
| AGCCGAAC | -0.0919 |
| CCCCCAAG | -0.172 |
| CCAGCACG | -0.014 |
| GCGGTTCA | -0.0339 |
| GCAACCTA | -0.0979 |
| GACCGCAA | 0.0479 |
| CTCAGGAC | 0.243 |
| ATGCACGA | -0.00947 |
| CACAAACC | -0.135 |
| AACTACAT | -0.0801 |
| CCTCCAGG | -0.259 |
| ACTTCTAT | 0.0685 |
| ATTTGCAG | 0.0696 |
| GCGTTCCA | -0.066 |
| CCGCCCAA | -0.0952 |
| AGGCGAAG | -0.158 |
| CAGACGCC | -0.175 |
| AGCGTGAT | 0.0556 |
| GTACGTCA | -0.039 |
| CTACCTTA | -0.228 |
| TACAGGAA | 0.0582 |
| GAGTTCTA | -0.0786 |

— the supplement of paper PMC3334620
